# Data published in ChEMBL document CHEMBL4888484, “Replenishing the malaria drug discovery pipeline: Screening and hit evaluation of the MMV Hit Generation Library 1 (HGL1) against asexual blood stage Plasmodium falciparum ,using a nano luciferase reporter read-out” (2022).
# Out of some 4,800 compounds screened, about 420 (8.8%) showed an effect of 50% or more. The list shows a part of the results.
# Test system: Plasmodium falciparum
# Assay: Confirmatory screen in NF54 nanoGlo assay, in single point, at 2uM, 72h
# Type: functional, Erythrocyte
# Details: timepoint 72 hour
row,SMILES,% Inhibition [%]
1,COCCC(=O)N1CC[C@H](c2nc(C3CCOCC3)no2)C1,-3
2,Cc1cc(C)c(OC(=O)c2ccc(Cl)cc2Cl)c(CNC(=O)c2ccccc2)c1,-16
3,Cc1nnc2sc(-c3cnn(-c4ccccn4)c3C(F)(F)F)nn12,-17
4,CN(C(=O)c1ccc2ncsc2c1)c1ccccc1,-4
5,COc1ccc(C)cc1NC(=O)N1CC(c2nc(C(C)C)nn2C)C1,-5
6,Cc1ccc(-c2cc3c(N4CC=C(c5ccccc5)CC4)nccn3n2)c(C)c1,4
7,CCOC(=O)C1(C(=O)OCC)CN(c2ccccc2)[C@H](C(=O)OC)C1(C(=O)OCC)C(=O)OCC,-1
8,CCO[C@H]1C[C@H](NC(=O)Nc2ccc(F)c(C3CC3)c2)C1,2
9,CCCC(=O)N1CCN(c2c(C)n(-c3ccccc3)c(=O)n(C)c2=O)CC1,2
10,COc1cc(-c2nc3ncnn3c(N)c2C#N)cc(OC)c1OC,-21
11,O=C(Nc1n[nH]c(Cc2cccc(F)c2)n1)[C@@H]1CCCc2[nH]ncc21,-8
12,COCc1cc2nn(CC(=O)Nc3ccc(F)c(F)c3)c(=O)n2c(-c2ccccc2)n1,-11
13,O=C(Nc1ccc2c(c1)OCCO2)N1CCN(c2nc3cccnc3n(Cc3ccccc3)c2=O)CC1,-6
14,O=C(Nc1cn[nH]c1)C(=O)Nc1ccc(F)c(F)c1F,-3
15,Nn1c(-c2ccccc2)c(-c2ccccc2)c(-c2ccccc2)cc1=O,-19
16,COc1cc(NS(=O)(=O)c2ccc(-n3cnnn3)cc2)nc(OC)n1,-5
17,COC(=O)c1ccccc1NC(=O)[C@@H]1C(=O)N(c2ccc(Cl)cc2)N=C1C,-10
18,Cc1c(C(=O)NC2CC2)cc(-c2ccccc2)n1C,-3
19,Cc1ccccc1C(=O)N(Cc1cccc(F)c1)c1ccc(CC(=O)NCCN2CCCCC2)cc1,44
20,CN(C)c1c(F)c(F)c2cc3c(C(C)(C)C)nn(C)c3nc2c1F,3
21,O=C(Cc1ccc(Oc2nccc(C(F)(F)F)n2)cc1)NCCO,1
22,CN(C)c1ccc(Nc2ccc(F)cc2S(=O)(=O)C(F)(F)F)cn1,-7

row,SMILES,% Inhibition [%]
1,Cc1nc(-c2cccnc2)nc(NCCNC(=O)C(C)(C)C)c1C,-2
2,COCCOc1ccc2c(n1)CCN(C(=O)c1ccc(OC)c(OC)c1)C2,-12
3,O=C([C@H]1CCCN(C(=O)N2CCc3sccc3C2)C1)N1CCc2[nH]ncc2C1,-15
4,O=S1(=O)NC(c2cccc(F)c2)=Nc2ccc(S(=O)(=O)N3CCOCC3)cc21,-12
5,CC[C@@]1(c2ccc(NC(=O)Cc3c[nH]c4ccccc34)cc2)CCC(=O)NC1=O,-3
6,O=C(Nc1ccsc1C(=O)N1CCCCC1)c1cnccn1,8
7,O=C(CN1CCN(Cc2ccc(F)cc2)C1=O)N1CCN(c2ccccc2)CC1,-6
8,Nc1nc(Cc2ccccc2)c(Br)c(=O)[nH]1,2
9,O=C1c2ccccc2C(=O)N1CCc1csc(Cn2cncn2)n1,3
10,CCC[C@H](NC(=O)c1ccc(Cl)o1)c1nnn[nH]1,6
11,CC(CO)(CO)NCc1ccc(F)cc1F,-5
12,FC(F)(F)c1cccc([C@@H]2CNC3(CCCC3)CO2)c1,-13
13,O=C(CN1CCN(Cc2cccc(Cl)c2)C1=O)N1CCN(c2ccccc2)CC1,-7
14,CC1(C)C2Cc3nc4c(cc3C1C2)CCC4 (stereo unspecified),-11
15,Cc1cccc(NC(=O)[C@@H](C#N)C(=O)C2CCC2)c1,0
16,Cc1cccc(C)c1Oc1ccccc1NC(=O)CCc1nnc[nH]1,5
17,C#CCN(C(=O)NC1CCN(C(C)=O)CC1)C1CCCC1,-12
18,O=c1[nH]c2nc(N3CCN(c4ccccn4)CC3)ncc2c(=O)n1-c1ccc(F)cc1,-2
19,CC1CCC(NC(=O)C(c2ccccc2)c2ccccc2)CC1 (stereo unspecified),10
20,CCc1ccc(C2=Nc3cccnc3N(CC(=O)Nc3c(C)cc(C)cc3C)C(=O)C2)cc1,-4
21,Cc1ccc(S(=O)(=O)Nc2c(-n3cnnc3)nn(C)c2C)c(C)c1,-7
22,c1ccc2[nH]c(Nc3nc4ccccc4s3)nc2c1,20

row,SMILES,% Inhibition [%]
1,C#CCCCCC(=O)Nc1ncccc1Cl,-2
2,O=C(O)C[C@H](NC(=O)c1cscn1)c1ccc(Cl)s1,-11
3,CC(C)[C@H](CNc1ncnc2ccsc12)N1CCN(C)CC1,5
4,C[C@H]1C(=O)N(C)C[C@@H](CNS(=O)(=O)c2ccccc2)N1Cc1cccnc1,-3
5,CC1=NN(c2ncc(C(F)(F)F)cc2Cl)C(=O)c2ccccc2O1,1
6,CCCNC(=O)c1sccc1NC(=O)c1cnccn1,2
7,CC(C)(C)C1CC(NC(=O)C2CC=CC2)CCO1 (stereo unspecified),-5
8,CC1(C)CC(=O)C(CC(=O)N2CCCCC2)(Cc2ccccc2)C(=O)C1,2
9,CCOC(=O)C(Nc1cccc(NC(C(=O)OCC)C(=O)OCC)c1)C(=O)OCC,-16
10,O=C(O)c1nccn1CNc1ccncc1,-2
11,O=C(C[C@@]1(O)C(=O)N(Cc2ccc(Cl)cc2Cl)c2ccccc21)c1ccccn1,-10
12,CCN(C(=O)Cn1ncn2nc(-c3cccc4ccccc34)cc2c1=O)c1ccccc1,1
13,Oc1cc(-c2ccc(F)cc2)nn1-c1nc2ccccc2[nH]1,-9
14,CNc1nc(-c2ccccc2)nnc1C(F)(F)F,0
15,O=C(O)CCCC(=O)NCCc1ccc(Cl)cc1,-14
16,CCCc1nnc(N(Cn2nnc3ccccc32)C(=O)CN2CCOCC2)s1,0
17,CC1(C)C[C@@](CCNCc2ccc(Cl)cc2)(Cc2ccccc2Cl)CCO1,-7
18,CCCc1noc([C@H](C)OC(=O)c2cc[nH]n2)n1,-7
19,CCn1nc(C)c(CN(C)C(=O)c2nn3cccnc3c2Cl)c1C,-2
20,FC(F)(F)c1cnc(-c2csc(NC3CCCCC3)n2)c(Cl)c1,9
21,CC(C)(C)C(=O)N1CCC(O)(CS(=O)(=O)Cc2ccc(Cl)cc2)CC1,4
22,CC(C)(C)c1cc(C[C@H]2CNCC[C@H]2CC(=O)N2CCC(Cc3ccccc3)CC2)no1,0
